Hit rate of the full screen: of about 310,000 compounds, about 14,000 (4.5%) showed an effect of 50% or more. The effect is printed as a negative number. This is one part of the list.
molecular target: human ether-à-go-go-related gene (hERG) potassium channel (human, UniProt Q12809); experiment: primary screen, population patch clamp on CHO cells stably expressing hERG
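Also: peak tail current of the secondary pulse compared with the same well before compound.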

human ether-à-go-go-related gene (hERG) potassium channel, sequence (Q12809 whole entry, looked up): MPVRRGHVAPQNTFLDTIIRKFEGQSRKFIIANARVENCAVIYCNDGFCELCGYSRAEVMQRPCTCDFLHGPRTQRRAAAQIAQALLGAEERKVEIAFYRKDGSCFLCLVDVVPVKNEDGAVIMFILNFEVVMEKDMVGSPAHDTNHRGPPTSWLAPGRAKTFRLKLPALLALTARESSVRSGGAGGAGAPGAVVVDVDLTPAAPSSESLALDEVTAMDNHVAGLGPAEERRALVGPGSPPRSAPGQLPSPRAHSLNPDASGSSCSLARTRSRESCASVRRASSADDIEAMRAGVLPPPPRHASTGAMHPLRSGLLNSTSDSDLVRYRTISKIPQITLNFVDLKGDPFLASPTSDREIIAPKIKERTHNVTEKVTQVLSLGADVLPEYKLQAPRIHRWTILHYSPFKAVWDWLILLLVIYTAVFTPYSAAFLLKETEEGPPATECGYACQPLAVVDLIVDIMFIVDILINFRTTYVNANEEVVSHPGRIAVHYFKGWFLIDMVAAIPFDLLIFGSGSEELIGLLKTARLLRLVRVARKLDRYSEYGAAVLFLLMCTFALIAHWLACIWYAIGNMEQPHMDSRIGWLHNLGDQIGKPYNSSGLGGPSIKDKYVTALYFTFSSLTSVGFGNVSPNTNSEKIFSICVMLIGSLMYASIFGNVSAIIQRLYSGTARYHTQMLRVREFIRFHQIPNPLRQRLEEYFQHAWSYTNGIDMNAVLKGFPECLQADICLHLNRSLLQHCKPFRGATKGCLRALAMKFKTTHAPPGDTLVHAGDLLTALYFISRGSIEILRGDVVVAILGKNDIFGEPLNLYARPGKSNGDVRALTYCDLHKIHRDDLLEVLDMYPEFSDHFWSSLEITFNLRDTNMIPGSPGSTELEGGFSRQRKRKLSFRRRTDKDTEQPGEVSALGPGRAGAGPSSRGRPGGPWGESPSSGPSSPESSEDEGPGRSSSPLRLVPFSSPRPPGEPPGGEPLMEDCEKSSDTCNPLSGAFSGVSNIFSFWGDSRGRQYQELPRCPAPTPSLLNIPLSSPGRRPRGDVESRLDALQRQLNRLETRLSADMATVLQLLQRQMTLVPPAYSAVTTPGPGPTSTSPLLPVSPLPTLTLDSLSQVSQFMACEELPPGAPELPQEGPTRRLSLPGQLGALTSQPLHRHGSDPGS

Going from Cc1nc(NC(=O)c2ccc3c(c2)OCO3)ccc1Br to Cc1cc(OC(F)F)ccc1NC(=O)Nc1ccc2c(c1)OCO2, the “hERG current change (%, negative = inhibition) at 10uM” value rises from 7.84% to 10.5%.

Going from COc1ccc(NC(=O)C(c2ccc(OC)cc2)N(C)C(=O)Cc2cccs2)cc1 (stereo not shown) to CCN(CC)S(=O)(=O)c1ccc(NC(=O)Cc2cccs2)cc1, the “hERG current change (%, negative = inhibition) at 10uM” value rises from -16.5% to 5.81%.

First: Cc1oc(C(=O)O)cc1COc1cccc2ccccc12
Second: CCN(CC(=O)Nc1cccc(F)c1)Cc1nc2ccccc2c(=O)[nH]1
The “hERG current change (%, negative = inhibition) at 10uM” value of the first is higher: 16.5% for the first, -31.7% for the second.

First: CCCCc1nc(NCCNC(=O)c2ccco2)c(C#N)c2c1CSC(C)(C)C2
Second: CCCCNC(=O)c1onc(CSc2cc(C)cc(C)c2)c1C(=O)NCCCC
The “hERG current change (%, negative = inhibition) at 10uM” value of the first is lower: -28.1% for the first, 5.89% for the second.

Going from O=C(O)c1ccc(CNC(=S)Nc2ccccc2)cc1 to NC(=O)c1ccc(-c2ccccc2F)cc1, the “hERG current change (%, negative = inhibition) at 10uM” value falls from 6.82% to -7.68%.

Compared with COc1ccc(S(=O)(=O)Nc2c(C)ccc3nsnc23)cc1OC, CCC(CC)c1nc(C(N)=O)c2[nH]c(=O)n(-c3ccc(OC)c(OC)c3)c2n1 is higher in “hERG current change (%, negative = inhibition) at 10uM” value: -22.8% for the first, 15% for the second.

First: COc1cc2c(cc1OC)C1=C(C#N)CCC(=NC(=O)c3ccc(Cl)cc3)N1CC2
Second: COc1ccc(/C=C(/C#N)C(=O)Nc2cccnc2)cc1OC
The “hERG current change (%, negative = inhibition) at 10uM” value of the first is higher: 1.52% for the first, -1.83% for the second.

Going from CN(C)CCCNc1oc(-c2cccc(Cl)c2)nc1C#N to N#Cc1nc(Cc2ccccc2)oc1N1CCN(c2cccc(Cl)c2)CC1, the “hERG current change (%, negative = inhibition) at 10uM” value rises from -33.1% to 20%.

Compared with Cc1ccc2[nH]c(=O)c(CNC(C)(C)C)cc2c1, Cc1cc(C)cc(NC(=O)CCn2c(=S)[nH]c3ccccc3c2=O)c1 is higher in “hERG current change (%, negative = inhibition) at 10uM” value: -19.5% for the first, 9.51% for the second.

First: COc1ccc(N(CC(=O)Nc2cccc(C)c2)S(=O)(=O)c2c(C)n[nH]c2C)cc1
Second: COc1ccc(CNC(=O)CN(c2ccc(OC)cc2)S(=O)(=O)c2c(C)nn(C)c2C)cc1
The “hERG current change (%, negative = inhibition) at 10uM” value of the first is lower: -24.9% for the first, -18.7% for the second.

Going from Cc1cc(C)n(-c2nc(SCC(=O)Nc3nccs3)c3c4c(sc3n2)COC(C)(C)C4)n1 to Cc1nn(Cc2c(Cl)cccc2Cl)c(C)c1NC(=O)CCCn1nc(C)c([N+](=O)[O-])c1C, the “hERG current change (%, negative = inhibition) at 10uM” value falls from 0.0558% to -8.69%.

First: O=C(OCc1nnc(-c2ccc([N+](=O)[O-])cc2)o1)C1CC(=O)N(CCc2ccccc2)C1 (stereo not shown)
Second: CCOc1ccc(NC(=O)CN2C(=O)c3ccccc3C2=O)cc1
The “hERG current change (%, negative = inhibition) at 10uM” value of the first is lower: -61.7% for the first, 4.71% for the second.

Compared with CCc1noc(C)c1C(=O)Nc1ccc(S(=O)(=O)N2CCC(C)CC2)cc1, Cc1ccc(S(=O)(=O)N2CCC(C(=O)O)CC2)cc1C(=O)O is higher in “hERG current change (%, negative = inhibition) at 10uM” value: -23.3% for the first, 9.33% for the second.

First: CCOc1cc2[nH]c(=S)n(Cc3ccc(C(=O)NCCCN4CCOCC4)cc3)c(=O)c2cc1OCC
Second: CC1CCCCN1CCNC(=O)c1ccc2c(=O)n(Cc3ccc(Cl)cc3)c(=S)[nH]c2c1 (stereo not shown)
The “hERG current change (%, negative = inhibition) at 10uM” value of the first is higher: 4.48% for the first, -50.9% for the second.

Compared with COc1cc2[nH]c3c(=O)n(CCN4CCOCC4)cnc3c2cc1OC, COc1cc2c(cc1OC)C(=O)NCC(C)(C)O2 is higher in “hERG current change (%, negative = inhibition) at 10uM” value: -8.21% for the first, -6.92% for the second.

First: O=C1/C(=C\c2ccccc2Cl)SC(=S)N1CCC(=O)N1CCCc2ccccc21
Second: O=C(CCNC(=O)N1CC(=O)Nc2ccccc21)Nc1cccc(Cl)c1
The “hERG current change (%, negative = inhibition) at 10uM” value of the first is higher: 16.2% for the first, 8.44% for the second.

Going from COC(=O)C1=NN(C(=O)c2ccc(C)cc2)C(O)(c2ccc(Cl)cc2)C1 (stereo not shown) to Cn1nnc2cc(C(=O)Nc3ccc(Cl)cc3)ccc21, the “hERG current change (%, negative = inhibition) at 10uM” value rises from -31.2% to -3.78%.

First: CCn1nnnc1SCC(=O)NC1Cc2ccccc2C1
Second: O=C(CSc1n[nH]c(-c2ccccc2Br)n1)NCCN1C(=O)CSC1=O
The “hERG current change (%, negative = inhibition) at 10uM” value of the first is lower: 15.2% for the first, 22.8% for the second.

First: Cc1cc(N2CCC(C(N)=O)CC2)nc(-c2ccccc2)n1
Second: COc1ccc2cc(C(C)C(=O)N3CCC(C(N)=O)CC3)ccc2c1 (stereo not shown)
The “hERG current change (%, negative = inhibition) at 10uM” value of the first is lower: -15.2% for the first, 17.1% for the second.

Going from O=C1C2C3C=CC(C2C(=O)N1c1nccs1)C1C(=O)N(c2nccs2)C(=O)C31 (stereo not shown) to COc1ccc(C(=O)COc2ccccc2N2C(=O)C3C4C=CC(C4)C3C2=O)cc1 (stereo not shown), the “hERG current change (%, negative = inhibition) at 10uM” value falls from 16.2% to -5.79%.

Compared with O=C(O)COCC(=O)N1CCN(C(c2ccccc2)c2ccccc2)CC1, O=C(COC(=O)Cc1ccsc1)NC(c1ccccc1)c1ccccc1 is higher in “hERG current change (%, negative = inhibition) at 10uM” value: -3.19% for the first, 9.47% for the second.

First: CSc1ccccc1OCc1cc(C(=O)N2CCN(c3ccccc3)CC2C)no1 (stereo not shown)
Second: COc1ccccc1C(=O)NCCN1CCN(c2ccccc2)CC1.Cl
The “hERG current change (%, negative = inhibition) at 10uM” value of the first is higher: 5.83% for the first, -12.2% for the second.

Going from CC(=O)NC1(C(F)(F)F)C(=O)Nc2c1c(=O)[nH]c(=O)n2CCc1ccccc1 (stereo not shown) to CC1=NNC(=O)C1CCC(=O)N/N=C/c1ccccc1 (stereo not shown), the “hERG current change (%, negative = inhibition) at 10uM” value rises from 6.34% to 11.3%.

First: CCCCNC(=S)N(C)/N=C/c1ccccc1F
Second: COCCCNC(=O)c1c(N)n(-c2cccc(S(N)(=O)=O)c2)c2nc3ccccc3nc12
The “hERG current change (%, negative = inhibition) at 10uM” value of the first is lower: 2.14% for the first, 17.2% for the second.

Going from CC(C)CCNC(=O)CN(Cc1ccc2c(c1)OCO2)C(=O)CCC(=O)Nc1ccccn1 to N#Cc1c(F)cccc1N1CCN(Cc2ccc3c(c2)OCO3)CC1, the “hERG current change (%, negative = inhibition) at 10uM” value falls from -70.7% to -81.3%.

First: O=C(O)c1cn[nH]c1-c1cccc([N+](=O)[O-])c1
Second: Cc1cc(C)nc(N(C#N)Cc2ccc([N+](=O)[O-])cc2)n1
The “hERG current change (%, negative = inhibition) at 10uM” value of the first is higher: 16.1% for the first, -26.6% for the second.

Going from CCC(C)NC(=O)NC1C(NC(=O)NC(C)CC)N(C)C(=O)N1C (stereo not shown) to COc1cc(C(=O)NCC(=O)N2CCN(S(=O)(=O)c3cc(C)ccc3C)CC2)cc(OC)c1OC, the “hERG current change (%, negative = inhibition) at 10uM” value falls from 11.6% to -20.9%.

First: CC(C(O)C12CC3CC(CC(C3)C1)C2)N1CCCCC1.Cl (stereo not shown)
Second: Cc1ccc(OCc2nc(C#N)c(N3CCCCC3)o2)cc1
The “hERG current change (%, negative = inhibition) at 10uM” value of the first is higher: 8.83% for the first, -4.24% for the second.

Going from COc1ccccc1NC(=S)N1CCn2cccc2C1c1cccnc1 (stereo not shown) to COc1ccccc1CN(C)C(=O)c1cccc(S(=O)(=O)N2CCc3ccccc3C2)c1, the “hERG current change (%, negative = inhibition) at 10uM” value rises from -10.9% to -4.08%.

Compared with NC(=O)CNc1n[nH]c(=S)[nH]c1=O, O=c1[nH]ncc(NCCCO)c1Cl is higher in “hERG current change (%, negative = inhibition) at 10uM” value: -1.64% for the first, 8.72% for the second.

Going from OCC1CCCCN1C(=S)Nc1cccc(Cl)c1 (stereo not shown) to Cc1ccc(Cl)cc1N1CCN(S(C)(=O)=O)CC1, the “hERG current change (%, negative = inhibition) at 10uM” value falls from 11.6% to -5.31%.

First: O=C(CC1NC(=S)NC1=O)c1ccc(Cl)cc1 (stereo not shown)
Second: CCN(CC)CCn1c(=S)[nH]c2cc(Cl)ccc2c1=O
The “hERG current change (%, negative = inhibition) at 10uM” value of the first is higher: 32.8% for the first, -63.2% for the second.

First: CCc1ccc2oc(=O)cc(CN3CCN(CCO)CC3)c2c1
Second: COC(=O)c1oc2ccc(Cl)cc2c1N
The “hERG current change (%, negative = inhibition) at 10uM” value of the first is lower: -14.9% for the first, -5.27% for the second.

Going from NC(=O)c1nsc(C(=O)N(Cc2cccnc2)C(C(=O)NCc2ccc(F)cc2)c2ccc(F)cc2)c1N (stereo not shown) to O=C(CN(c1cccc([N+](=O)[O-])c1)S(=O)(=O)c1ccccc1)N(Cc1ccccc1)Cc1ccccc1, the “hERG current change (%, negative = inhibition) at 10uM” value rises from 0.71% to 15.3%.

First: Cc1cc(C)cc(NC(=O)N2CCC(NC(=O)c3ccc(F)cc3)CC2)c1
Second: CC(NC(=O)c1ccc(Br)cc1)c1ccc2c(c1)CCCC2 (stereo not shown)
The “hERG current change (%, negative = inhibition) at 10uM” value of the first is lower: -35.5% for the first, -14.6% for the second.

Going from O=S(=O)(NCCc1cn2ccccc2n1)c1ccc2c(c1)CCCC2 to O=C(Nc1cc(S(=O)(=O)N2CCOCC2)ccc1N1CCOCC1)c1cn2ccccc2n1, the “hERG current change (%, negative = inhibition) at 10uM” value falls from -19.1% to -52.3%.

Compared with CN=C(Cc1ccccc1)C1=C(O)CC(C)(C)CC1=O, Cc1c(Cl)cccc1NC(=O)Nc1ccccc1C(N)=O is lower in “hERG current change (%, negative = inhibition) at 10uM” value: 36.8% for the first, 19% for the second.

Going from O=S(=O)(c1cccc2nsnc12)N1CCNCC1 to CC1CCCN(S(=O)(=O)c2cccc3nonc23)C1 (stereo not shown), the “hERG current change (%, negative = inhibition) at 10uM” value rises from 1.59% to 20.6%.

Compared with OCCCc1ccc(O)c(O)c1, CCOC(=O)c1ccc(S(=O)(=O)NNC(=O)COc2cccc(C)c2)cc1 is higher in “hERG current change (%, negative = inhibition) at 10uM” value: -2.3% for the first, 34.6% for the second.

First: COC(=O)c1cc(NC(=O)Cc2cc(OC)c(OC)c(OC)c2)cc(C(=O)OC)c1
Second: COc1cccc(C2CC(=O)Nc3cc4c(cc32)OCCO4)c1OC(C)C (stereo not shown)
The “hERG current change (%, negative = inhibition) at 10uM” value of the first is lower: 7.38% for the first, 7.62% for the second.

Compared with C#CCSc1nc(N)c2c(n1)OC(N)=C(C#N)C2c1cccnc1 (stereo not shown), Cc1nn(C(C)c2nc(-c3ccccc3)no2)c(C)c1[N+](=O)[O-] (stereo not shown) is lower in “hERG current change (%, negative = inhibition) at 10uM” value: -7.78% for the first, -23.7% for the second.

Compared with CCc1ccc(NC(=O)C2CCC(CNC(=O)[C@@H]3Cc4ccccc4CN3)CC2)cc1 (stereo partly shown), CC(=O)N1c2ccc(S(=O)(=O)NCC3CCC(C(=O)NC4CCC(C)CC4)CC3)cc2CC1C (stereo not shown) is lower in “hERG current change (%, negative = inhibition) at 10uM” value: 4.23% for the first, -3.24% for the second.

First: CC(C(=O)OCn1nnc2ccccc2c1=O)N1C(=O)c2ccccc2C1=O (stereo not shown)
Second: Cc1ccccc1N1CC(=O)Nc2c(oc3nc(-c4ccccc4)cc(C)c23)C1=O
The “hERG current change (%, negative = inhibition) at 10uM” value of the first is higher: -0.386% for the first, -0.593% for the second.

First: O=C(c1ccc2nc(-c3ccco3)c(-c3ccco3)nc2c1)N1CCN(c2ccccc2)CC1
Second: Cc1ccc(CN2CC(C(=O)N3CCN(S(=O)(=O)c4c(F)cccc4F)CC3)CC2=O)cc1 (stereo not shown)
The “hERG current change (%, negative = inhibition) at 10uM” value of the first is lower: -15.4% for the first, -2.83% for the second.

— PMC4336329 (PLoS ONE, 2015)
